Test results taken from patent US11618753B2 (priority 2018, dated 2023).

The compounds below were run on MLKL phosphorylation, HT29-L23 human colorectal adenocarcinoma cells (assay: cells). Conditions: read-out: pMLKL HCS Cell Assay (IC50, uM).
`Cc1c(F)cc(-c2cc(C(F)(F)F)c3c(N)ncnn23)cc1C(=O)N[C@@H]1CN(C(=O)C2CC(F)C2)C[C@@H]1F` (stereo partly drawn) [Example 678, 5-[4-amino-5-(trifluoromethyl)pyrrolo[2,1-f][1,2,4]triazin-7-yl]-3-fluoro-N-[(3R,4S)-4-fluoro-1-(3-fluorocyclobutanecarbonyl)pyrrolidin-3-yl]-2-methylbenzamide] showed an IC50 of 0.0029 µM. `Cc1c(F)cc(-c2cc(C(F)(F)F)c3c(N)ncnn23)cc1C(=O)N[C@@H]1CN(C(=O)C2CCC(F)(F)C2)C[C@@H]1F` (stereo partly drawn) [Example 679, 5-[4-amino-5-(trifluoromethyl)pyrrolo[2,1-f][1,2,4]triazin-7-yl]-N-[(3R,4S)-1-(3,3-difluorocyclopentanecarbonyl)-4-fluoropyrrolidin-3-yl]-3-fluoro-2-methylbenzamide] was tested, and the IC50 was 0.0027 µM. `COc1c(F)cc(-c2cc(C(F)(F)F)c3c(N)ncnn23)cc1C(=O)N[C@@H]1CN(C(=O)c2ccccc2F)C[C@@H]1F` [Example 681, 5-[4-amino-5-(trifluoromethyl)pyrrolo[2,1-f][1,2,4]triazin-7-yl]-3-fluoro-N-[(3R,4S)-4-fluoro-1-(2-fluorobenzoyl)pyrrolidin-3-yl]-2-methoxybenzamide] showed an IC50 of 0.019 µM. In the case of `COc1c(F)cc(-c2cc(C(F)(F)F)c3c(N)ncnn23)cc1C(=O)N[C@@H]1CN(C(=O)C2CCC2)C[C@@H]1F` [Example 682, 5-[4-amino-5-(trifluoromethyl)pyrrolo[2,1-f][1,2,4]triazin-7-yl]-N-[(3R,4S)-1-cyclobutanecarbonyl-4-fluoropyrrolidin-3-yl]-3-fluoro-2-methoxybenzamide], the IC50 is reported as 0.018 µM. Work on `COc1c(F)cc(-c2cc(C(F)(F)F)c3c(N)ncnn23)cc1C(=O)N[C@@H]1CN(C(=O)c2ccc(F)cc2)C[C@@H]1F` [Example 683, 5-[4-amino-5-(trifluoromethyl)pyrrolo[2,1-f][1,2,4]triazin-7-yl]-3-fluoro-N-[(3R,4S)-4-fluoro-1-(4-fluorobenzoyl)pyrrolidin-3-yl]-2-methoxybenzamide] yielded an IC50 of 0.034 µM. Work on `COc1c(F)cc(-c2cc(C(F)(F)F)c3c(N)ncnn23)cc1C(=O)N[C@@H]1CN(C(=O)C2CC(F)(F)C2)C[C@@H]1F` [Example 684, 5-[4-amino-5-(trifluoromethyl)pyrrolo[2,1-f][1,2,4]triazin-7-yl]-N-[(3R,4S)-1-(3,3-difluorocyclobutanecarbonyl)-4-fluoropyrrolidin-3-yl]-3-fluoro-2-methoxybenzamide] yielded an IC50 of 0.044 µM. Work on `COc1c(F)cc(-c2cc(C(F)(F)F)c3c(N)ncnn23)cc1C(=O)N[C@@H]1CN(C(=O)[C@@](C)(O)C(F)(F)F)C[C@@H]1F` [Example 686, 5-[4-amino-5-(trifluoromethyl)pyrrolo[2,1-f][1,2,4]triazin-7-yl]-3-fluoro-N-[(3R,4S)-4-fluoro-1-[(28)-3,3,3-trifluoro-2-hydroxy-2-methylpropanoyl]pyrrolidin-3-yl]-2-methoxybenzamide] yielded an IC50 of 0.0027 µM. With `COc1c(F)cc(-c2cc(C(F)(F)F)c3c(N)ncnn23)cc1C(=O)N[C@@H]1CN(C(=O)C2CC(F)C2)C[C@@H]1F` (stereo partly drawn) [Example 687, 5[-4-amino-5-(trifluoromethyl)pyrrolo[2,1-f][1,2,4]triazin-7-yl]-3-fluoro-N-[(3R,4S)-4-fluoro-1-(3-fluorocyclobutanecarbonyl)pyrrolidin-3-yl]-2-methoxybenzamide] the IC50 was 0.037 µM. With `COc1c(F)cc(-c2cc(C(F)(F)F)c3c(N)ncnn23)cc1C(=O)N[C@@H]1CN(C(=O)C2(F)CC2)C[C@@H]1F` [Example 688, 5-[4-amino-5-(trifluoromethyl)pyrrolo[2,1-f][1,2,4]triazin-7-yl]-3-fluoro-N-[(3R,4S)-4-fluoro-1-(1-fluorocyclopropanecarbonyl)pyrrolidin-3-yl]-2-methoxybenzamide] the IC50 was 0.029 µM. `COc1c(F)cc(-c2cc(C(F)(F)F)c3c(N)ncnn23)cc1C(=O)N[C@@H]1CN(C(=O)C2CCC(F)(F)CC2)C[C@@H]1F` [Example 689, 5-[4-amino-5-(trifluoromethyl)pyrrolo[2,1-f][1,2,4]triazin-7-yl]-N-[(3R,4S)-1-(4,4-difluorocyclohexanecarbonyl)-4-fluoropyrrolidin-3-yl]-3-fluoro-2-methoxybenzamide] was tested, and the IC50 was 0.184 µM. `COc1c(F)cc(-c2cc(C(F)(F)F)c3c(N)ncnn23)cc1C(=O)N[C@@H]1CN(C(=O)CC(O)(C(F)(F)F)C(F)(F)F)C[C@@H]1F` [Example 690, 5-[4-amino-5-(trifluoromethyl)pyrrolo[2,1-f][1,2,4]triazin-7-yl]-3-fluoro-N-[(3R,4S)-4-fluoro-1-[4,4,4-trifluoro-3-hydroxy-3-(trifluoromethyl)butanoyl]pyrrolidin-3-yl]-2-methoxybenzamide] gave an IC50 of 0.005 µM. In the case of `COc1c(F)cc(-c2cc(C(F)(F)F)c3c(N)ncnn23)cc1C(=O)N[C@@H]1CN(C(=O)CC(C(F)(F)F)C(F)(F)F)C[C@@H]1F` [Example 691, 5-[4-amino-5-(trifluoromethyl)pyrrolo[2,1-f][1,2,4]triazin-7-yl]-3-fluoro-N-[(3R,4S)-4-fluoro-1-[4,4,4-trifluoro-3-(trifluoromethyl)butanoyl]pyrrolidin-3-yl]-2-methoxybenzamide], the IC50 is reported as 0.016 µM. `CCC(O)(C(=O)N1C[C@H](F)[C@H](NC(=O)c2cc(-c3cc(C(F)(F)F)c4c(N)ncnn34)cc(F)c2OC)C1)C(F)(F)F` (stereo partly drawn) [Example 692, 5-[4-amino-5-(trifluoromethyl)pyrrolo[2,1-f][1,2,4]triazin-7-yl]-3-fluoro-N-[(3R,4S)-4-fluoro-1-[2-hydroxy-2-(trifluoromethyl)butanoyl]pyrrolidin-3-yl]-2-methoxybenzamide] was tested, and the IC50 was 0.015 µM. For `COc1c(F)cc(-c2cc(C(F)(F)F)c3c(N)ncnn23)cc1C(=O)N[C@@H]1CN(C(=O)C(C)C(F)(F)F)C[C@@H]1F` (stereo partly drawn) [Example 694, 5-[4-amino-5-(trifluoromethyl)pyrrolo[2,1-f][1,2,4]triazin-7-yl]-3-fluoro-N-[(3R,4S)-4-fluoro-1-(3,3,3-trifluoro-2-methylpropanoyl)pyrrolidin-3-yl]-2-methoxybenzamide], the IC50 was 0.026 µM. Work on `COc1c(F)cc(-c2cc(C(F)(F)F)c3c(N)ncnn23)cc1C(=O)N[C@@H]1CN(C(=O)C2CCC(F)CC2)C[C@@H]1F` (stereo partly drawn) [Example 695, 5-[4-amino-5-(trifluoromethyl)pyrrolo[2,1-f][1,2,4]triazin-7-yl]-3-fluoro-N-[(3R,4S)-4-fluoro-1-(4-fluorocyclohexanecarbonyl)pyrrolidin-3-yl]-2-methoxybenzamide] yielded an IC50 of 0.086 µM. Work on `COc1c(F)cc(-c2cc(C(F)(F)F)c3c(N)ncnn23)cc1C(=O)N[C@@H]1CN(C(=O)CC(C)(O)C(F)(F)F)C[C@@H]1F` (stereo partly drawn) [Example 696, 5-[4-amino-5-(trifluoromethyl)pyrrolo[2,1-f][1,2,4]triazin-7-yl]-3-fluoro-N-[(3R,4S)-4-fluoro-1-(4,4,4-trifluoro-3-hydroxy-3-methylbutanoyl)pyrrolidin-3-yl]-2-methoxybenzamide] yielded an IC50 of 0.023 µM. Work on `COc1c(F)cc(-c2cc(C(F)(F)F)c3c(N)ncnn23)cc1C(=O)N[C@@H]1CN(C(=O)C2CC2(F)F)C[C@@H]1F` (stereo partly drawn) [Example 697, 5-[4-amino-5-(trifluoromethyl)pyrrolo[2,1-f][1,2,4]triazin-7-yl]-N-[(3R,4S)-1-(2,2-difluorocyclopropanecarbonyl)-4-fluoropyrrolidin-3-yl]-3-fluoro-2-methoxybenzamide] yielded an IC50 of 0.032 µM. Compound `COc1c(F)cc(-c2cc(C(F)(F)F)c3c(N)ncnn23)cc1C(=O)N[C@@H]1CN(C(=O)C2CCC(F)(F)C2)C[C@@H]1F` (stereo partly drawn) [Example 698, 5-[4-amino-5-(trifluoromethyl)pyrrolo[2,1-f][1,2,4]triazin-7-yl]-N-[(3R,4S)-1-(3,3-difluorocyclopentanecarbonyl)-4-fluoropyrrolidin-3-yl]-3-fluoro-2-methoxybenzamide] has an IC50 of 0.026 µM. Compound `COc1c(F)cc(-c2cc(C(F)(F)F)c3c(N)ncnn23)cc1C(=O)N[C@@H]1CN(C(=O)CC(F)(F)F)C[C@@H]1F` [Example 699, 5-[4-amino-5-(trifluoromethyl)pyrrolo[2,1-f][1,2,4]triazin-7-yl]-3-fluoro-N-[(3R,4S)-4-fluoro-1-(3,3,3-trifluoropropanoyl)pyrrolidin-3-yl]-2-methoxybenzamide] has an IC50 of 0.112 µM. Work on `COc1c(F)cc(-c2cc(C(F)(F)F)c3c(N)ncnn23)cc1C(=O)N[C@@H]1CN(C(=O)C(C)(C)O)C[C@@H]1F` [Example 700, 5-[4-amino-5-(trifluoromethyl)pyrrolo[2,1-f][1,2,4]triazin-7-yl]-3-fluoro-N-[(3R,4S)-4-fluoro-1-(2-hydroxy-2-methylpropanoyl)pyrrolidin-3-yl]-2-methoxybenzamide] yielded an IC50 of 0.105 µM. Compound `Cc1cc(-c2cc(C(F)(F)F)c3c(N)ncnn23)cc(C(=O)N[C@@H]2CN(C(=O)CC(O)(C(F)(F)F)C(F)(F)F)C[C@@H]2F)c1Cl` [Example 702, 5-[4-amino-5-(trifluoromethyl)pyrrolo[2,1-f][1,2,4]triazin-7-yl]-2-chloro-N-[(3R,4S)-4-fluoro-1-[4,4,4-trifluoro-3-hydroxy-3-(trifluoromethyl)butanoyl]pyrrolidin-3-yl]-3-methylbenzamide] has an IC50 of 0.0051 µM. For `CCC(O)(C(=O)N1C[C@H](F)[C@H](NC(=O)c2cc(-c3cc(C(F)(F)F)c4c(N)ncnn34)cc(C)c2Cl)C1)C(F)(F)F` (stereo partly drawn) [Example 703, 5-[4-amino-5-(trifluoromethyl)pyrrolo[2,1-f][1,2,4]triazin-7-yl]-2-chloro-N-[(3R,4S)-4-fluoro-1-[2-hydroxy-2-(trifluoromethyl)butanoyl]pyrrolidin-3-yl]-3-methylbenzamide], the IC50 was 0.009 µM. `Cc1cc(-c2cc(C(F)(F)F)c3c(N)ncnn23)cc(C(=O)N[C@@H]2CN(C(=O)C(C)(C)F)C[C@@H]2F)c1Cl` [Example 705, 5-[4-amino-5-(trifluoromethyl)pyrrolo[2,1-f][1,2,4]triazin-7-yl]-2-chloro-N-[(3R,4S)-4-fluoro-1-(2-fluoro-2-methylpropanoyl)pyrrolidin-3-yl]-3-methylbenzamide] gave an IC50 of 0.018 µM. `Cc1cc(-c2cc(C(F)(F)F)c3c(N)ncnn23)cc(C(=O)N[C@@H]2CN(C(=O)C3CC(F)(F)C3)C[C@@H]2F)c1Cl` [Example 706, 5-[4-amino-5-(trifluoromethyl)pyrrolo[2,1-f][1,2,4]triazin-7-yl]-2-chloro-N-[(3R,4S)-1-(3,3-difluorocyclobutanecarbonyl)-4-fluoropyrrolidin-3-yl]-3-methylbenzamide] was tested, and the IC50 was 0.025 µM.
